# In all, about 310,000 compounds went through this assay and about 18,000 (5.8%) were called active. The shares of active, inactive and inconclusive entries below differ from those in the screen. The call rests on the fitted dose curve; in most records, active means well fitted inhibition curve with a large enough effect; inconclusive means small, poorly fitted or top-dose-only effect, or another doubt; inactive means no such curve, though single readings can be large or run the other way. Potencies of inconclusive entries are left out as doubtful fits. Where a structure was tested more than once in an assay, its records may differ in their call.
# Assay: Primary qHTS for delayed death inhibitors of the malarial parasite plastid, 48 hour incubation
# Details: P. falciparum luciferase growth in erythrocytes; series mostly up to 28.7 µM; activity change, negative = inhibition: at the top concentration
# In short: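 A one-generation exposure of luciferase-tagged malaria parasites in RPMI 1640/Albumax erythrocyte culture, 37 C and 5% CO2. Inhibition is inferred from decreased luminescence after adding detection reagent.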
# On the % scale 0 is the no-effect control and ±100 the full control effect; potency means the concentration at half of the fitted maximal effect; tags describe the fitted curve by direction and shape.
SMILES,Potency,"activity change, negative = inhibition"
CCC1(c2cccc(Cl)c2)NC(=O)N(Cc2cc(C(=O)OC)c(C)o2)C1=O (stereo not given),"inconclusive [inhibitor, single point]",
CCC(C)(C)NC(=O)c1ccc(S(=O)(=O)N(C)c2ccccc2OC)cc1,,inactive: -24.8%
O=C(CCC1CCCN(C(=O)Cc2ccc(F)cc2)C1)N1CCN(c2ccccn2)CC1 (stereo not given),"inconclusive [inhibitor, partial curve, poor fit]",
Cc1ccnc(NC(=O)CCC2COc3ccccc3O2)c1 (stereo not given),,inactive: 23.7%
CCCCCCSc1ccc([C@H]2N[C@@](CC(C)C)(C(=O)OC)[C@H]3C(=O)N(C)C(=O)[C@@H]23)cc1,"inconclusive [inhibitor, partial curve, poor fit]",
CC(=O)Nc1ccc(NC(=O)C(C)OC(=O)CSc2ccc(Br)cc2C)cc1 (stereo not given),"inconclusive [inhibitor, single point]",
Cc1ccc2cccc(NC(=O)C(F)(F)F)c2n1,,inactive: 0.471%
COc1ccc(Cn2nnnc2C(C(C)C)N(Cc2ccco2)Cc2cccs2)cc1 (stereo not given),"inconclusive [inhibitor, partial curve, poor fit]",
Cc1ccc2cc3c(NC(=O)C(C)C)nn(C)c3nc2c1,"inconclusive [inhibitor, single point]",
COc1ccc(C(=O)C2CCCN(C/C=C/c3ccccc3OC)C2)c(OC)c1 (stereo not given),"inconclusive [inhibitor, single point]",
CC(CCc1ccccc1)NC(=O)/C=C/c1ccccc1 (stereo not given),"inconclusive [inhibitor, single point]",
CN(c1ccccc1)S(=O)(=O)c1ccc(C(=O)OCC(=O)NCc2cccs2)cc1,"inconclusive [inhibitor, single point]",
COc1ccc([C@H]2CC(=O)C=C(c3ccc(CNC(=O)OC(C)(C)C)cc3)C2)cc1,active: 11.7 µM,
CCOC(=O)C1=C(C)NC(=O)NC1c1c(OCC(=O)N2CCCCC2)ccc2ccccc12 (stereo not given),active: 11.7 µM,
COc1cc(C)c(NC(=O)c2cc(C3CC3)nc3c2cnn3C(C)C)cc1OC,"inconclusive [inhibitor, partial curve, poor fit]",
CCOC(=O)c1sc(=S)n(-c2ccccc2Cl)c1C,"inconclusive [inhibitor, partial curve, poor fit]",
C=C1C=C(C(F)F)n2ncc(C(=O)Nc3ccc(C(C)CC)cc3)c2N1 (stereo not given),"inconclusive [inhibitor, full curve, poor fit]",
COc1cc(/C=c2\sc3n(c2=O)C(c2ccccc2)C(c2ccccc2)=NN=3)ccc1O (stereo not given),active: 4.65 µM,
C#CCOCCOCCOCCNc1nc(N2CCOCC2)nc(N2CCN(C(=O)[C@H](Cc3ccc(O)cc3)n3cc([C@@H](N)C(C)CC)nn3)CC2)n1 (stereo not given in full),"inconclusive [inhibitor, partial curve, poor fit]",
COC(=O)C1CCN(C(=O)c2cc3c(=O)n4cccc(C)c4nc3n2Cc2ccccc2)CC1,active: 5.86 µM,
CCCCC(=NCCc1c(C)[nH]c2ccc(OC)cc12)C1=C(O)CC(c2ccccc2)CC1=O (stereo not given),"inconclusive [inhibitor, partial curve]",
CCOC(=O)C1(Cc2cccc(OC)c2)CCCN(Cc2cc(C(C)C)n[nH]2)C1 (stereo not given),"inconclusive [inhibitor, partial curve, poor fit]",
CN(C)CCCn1c(=O)n(Cc2ccco2)c(=O)c2c3c(sc21)CCCCC3,"inconclusive [inhibitor, partial curve, poor fit]",
COc1ccc(-c2cn(-c3ccc(OC)cc3)c3[n+]2-c2ccccc2CC3)cc1,active: 1.17 µM,

SMILES,Potency,"activity change, negative = inhibition"
COc1ccc(-c2ccnc3nc(N4CCN(c5ccccc5)CC4)nn23)cc1,"inconclusive [inhibitor, single point]",
O=C(CCC(=O)c1cccs1)OCC(=O)c1ccccc1F,,inactive: 22.9%
Cc1cccc(OCC(=O)N(Cc2ccccc2)c2c(N)n(Cc3ccccc3)c(=O)[nH]c2=O)c1,"inconclusive [inhibitor, single point]",
CC(C)Oc1cc(N)c(Cl)cc1Cl,,inactive: 15.8%
Cc1ccc2nc3c(c(Nc4ccc5c(c4)OCCO5)c2c1)CCC3,active: 4.15 µM,
COc1ccc(CCNc2c(C)c(C)nc3ncnn23)cc1,"inconclusive [inhibitor, single point]",
CC(CS(=O)(=O)c1ccccc1[N+](=O)[O-])N1CCOCC1 (stereo not given),active: 11.7 µM,
CCOc1cccc2sc(=NC(=O)c3ccco3)n(CC(=O)OC)c12,"inconclusive [inhibitor, single point]",
CCOc1ccc(Br)cc1S(=O)(=O)NCc1ccc(S(N)(=O)=O)cc1,,inactive: -7.48%
O=C(Nc1ccc2nc(C3CC3)n(Cc3ccc(F)cc3)c(=O)c2c1)c1ccco1,active: 1.85 µM,
Cc1ccc(SCC(=O)NCCc2ccccc2)cc1,,inactive: 19.5%
O=C(O)c1ccc(NC(=S)NC(=O)c2cncc(Br)c2)cc1,,inactive: -11.4%
Cc1ccc(NC(=O)c2cc([N+](=O)[O-])ccc2N2CCOCC2)cc1S(=O)(=O)N(C)C,,inactive: -6.97%
CN(C)[C@@H]1C(=O)C(C(N)=O)=C(O)[C@@]2(O)C(=O)C3=C(O)c4c(O)cccc4[C@@](C)(O)C3[C@H](O)C12 (stereo not given in full),active: 14.7 µM,
Cc1ccc(Cn2ccc(O)c(Cc3ccccc3)c2=O)cc1,"inconclusive [inhibitor, single point]",
Cc1ccc(S(=O)(=O)N2CCC(C(=O)OCC(=O)NC3(C#N)CCCCC3)CC2)cc1C,"inconclusive [inhibitor, single point]",
NC(=O)Cn1c(=O)n(Cc2ccco2)c(=O)c2c3c(sc21)CCCCC3,"inconclusive [inhibitor, single point]",
COc1ccc(C)cc1NC(=O)C1CC(=O)N(CCc2ccccc2)C1 (stereo not given),,inactive: 25.6%
COc1ccc(CCN=C(N)NS(=O)(=O)c2ccccc2)cc1OC,,inactive: 2.14%
CCOC(=O)C(=CNNc1ccccc1)C(=O)OCC,,inactive: 28.9%
CCOC(=O)NNc1ccccc1,,inactive: 1.28%
CC1Cc2ccccc2N1C(=O)CSc1nc2cc3c(cc2cc1C#N)OCO3 (stereo not given),"inconclusive [inhibitor, single point]",
CN1CCc2c(sc(NC(=O)c3cc(Cl)sc3Cl)c2C(N)=O)C1,"inconclusive [inhibitor, single point]",
COc1cc(Cc2cnc(N)nc2N)cc(OC)c1OC,active: 1.51 µM,

SMILES,Potency,"activity change, negative = inhibition"
CN1C(=O)c2ccc(S(=O)(=O)c3ccc(C(=O)O)cc3)cc2C1=O,,inactive: 17.2%
Cc1ccc(/C=C/C(=O)OC(C)C(=O)Nc2ccc(Cl)cn2)o1 (stereo not given),,inactive: -4.68%
O=C(COC(=O)c1cccc(S(=O)(=O)NCc2ccccc2)c1)NCC1CCCO1 (stereo not given),,inactive: -7.6%
Cn1nc(C(=O)NC2CCCc3ccccc32)ccc1=O (stereo not given),"inconclusive [inhibitor, partial curve, poor fit]",
Cc1ccc(O)c(N)c1,"inconclusive [inhibitor, single point]",
Cc1ccccc1N1CC(C(=O)Nc2ccc(S(=O)(=O)N3CCOCC3)cc2)CC1=O (stereo not given),,inactive: -16.3%
Cc1ccc(N(C(=O)CNC(=O)c2ccco2)C(C(=O)NC2CCCCC2)c2ccncc2)cc1F (stereo not given),,inactive: -8.76%
COc1ccc(S(=O)(=O)N2CCCCCC2)cc1C(=O)N(C)Cc1ccc(C(C)(C)C)cc1,"inconclusive [inhibitor, partial curve, poor fit]",
Cc1ccc(-c2nc(COC(=O)C3=NN(c4ccccc4)C(=O)CC3)cs2)cc1,,inactive: 45.1%
CCNc1nc(NC(C)C)nc(Oc2ccc(=O)n(C)n2)n1,,inactive: -1.58%
COc1ccc(C(C(=O)NCC2CCCO2)N(Cc2ccccc2)C(=O)c2snc(C(N)=O)c2N)cc1OC (stereo not given),"inconclusive [inhibitor, single point]",
CCOc1ccc(C(=O)NCC(=O)N2CCN(c3ccccc3O)CC2)cc1,"inconclusive [inhibitor, partial curve, poor fit]",
COc1ccc(CNC(=O)COC(=O)c2n[nH]c3ccccc23)cc1OC,"inconclusive [inhibitor, partial curve]",
COc1ccc(-c2c(-c3ccccc3OC)sc3ccccc23)cc1OC,"inconclusive [inhibitor, single point]",
CCNC(=S)NC1CC2CCCC(C1)N2CCc1ccccc1 (stereo not given),"inconclusive [inhibitor, full curve]",
CCC(C)(C)n1nnnc1C(c1cccs1)N1CCN(Cc2ccccc2)CC1 (stereo not given),"inconclusive [inhibitor, single point]",
CC1(C)CC2CC(C)(CN2C(=O)COC(=O)c2cccc(O)c2)C1 (stereo not given),"inconclusive [inhibitor, single point]",
Cc1cc(C)c(C(=O)COC(=O)CNC(=O)c2ccccc2C)c(C)c1,"inconclusive [inhibitor, partial curve, poor fit]",
CCOC(=O)C1(Cc2cccc(OC)c2)CCN(Cc2cccc(O)c2)CC1,"inconclusive [inhibitor, single point]",
O=[N+]([O-])c1cccc(-c2ccc(C(=S)N3CCN(c4ccc(F)cc4)CC3)o2)c1,,inactive: -14.8%
C=CCc1cccc(/C=N/NC(=O)C(C)Nc2ccc(C)cc2)c1O (stereo not given),"inconclusive [inhibitor, partial curve]",
COc1ccccc1NC(=S)N(Cc1cccs1)C1CCCC1,,inactive: -16.7%
